Results from PubChem BioAssay (Tox21).
Inconclusive results, whose numbers are uncertain, are shown with a selection of clear calls. For part of these data: No potency is given beside an inconclusive call; the fits are too rough. Activity calls are given as the source filed them. Unless noted, calls follow the shape of the dose curve; as a rule, active = well fitted curve in the direction sought with a large enough effect in the repeat runs; inconclusive = weak or mixed curves; inactive = no such curve, though single readings can be large; an effect the other way counts as inactive or inconclusive.

What was measured:
[1] = qHTS assay for identifying genotoxic compounds that show differential cytotoxicity against isogenic chicken DT40 cell lines with known DNA damage response pathways - wild type cell line (AID 743012); conditions: DT40 wild type chicken cells viability, CellTiter-Glo, 40 h; activity change, negative = cytotoxicity: at 68.4 µM (top of the series) unless noted; also: nearly all actives have a fitted effect of over 60% in size; also: potency is read from the fitted curve at half-maximal effect
How it was run: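 300 wt DT40 cells/well; cpd (DMSO) pintool-transferred after ~0.5 h at 37 C/5% CO2; 40 h incubation; CellTiter-Glo added, 30 min RT; luminescence read.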

[2] = qHTS assay for identifying genotoxic compounds that show differential cytotoxicity against isogenic chicken DT40 cell lines with known DNA damage response pathways - Rad54/Ku70 mutant cell line (AID 743015); conditions: DT40 Rad54/Ku70 mutant viability, CellTiter-Glo, 40 h; activity change, negative = cytotoxicity: at 66.8 µM (top of the series); also: potency is read from the fitted curve at half-maximal effect; nearly all actives have a fitted effect of over 60% in size
[3] = qHTS assay to identify small molecule antagonists of the thyroid receptor (TR) signaling pathway - cell viability counter screen (AID 743064); conditions: GH3.TRE-Luc viability, CellTiter-Fluor, 24 h; activity change, negative = cytotoxic: at 70.3 µM (top of the series) unless noted; also: potency is read from the fitted curve at half-maximal effect; nearly all actives have a fitted effect of over 50% in size
How it was run: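 Same-well viability check: GH3.TRE-Luc cells stimulated with 1 nM T3 alongside test compound for 23.5 h, followed by CellTiter-Fluor fluorescence.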

[4] = target: Estrogen receptor (Homo sapiens) (UniProt P03372); test: qHTS assay to identify small molecule agonists of the estrogen receptor alpha (ER-alpha) signaling pathway (AID 743075; calls by dose curve)
Aromatase (Homo sapiens) = Aromatase (Homo sapiens) (UniProt P11511); test: qHTS assay to identify aromatase inhibitors (AID 743083); also: nearly all actives have a fitted effect of over 55% in size; also: potency is read from the fitted curve at half-maximal effect
[5] = target: Estrogen receptor (Homo sapiens) (UniProt P03372); test: qHTS assay to identify small molecule antagonists of the estrogen receptor alpha (ER-alpha) signaling pathway (AID 743069; active = well fitted curve in the direction sought with a large enough effect in the signal ratio in the repeat runs, not every such curve was filed as active; inconclusive = weak or mixed curves, or effect the other way; inactive = no such curve, though single readings can be large or run the other way; the % refers to the signal ratio; also: potency is read from the fitted curve at half-maximal effect); conditions: HEK293 ER-alpha-UAS-bla, beta-lactamase ratio, antagonist mode; series mostly up to 69.4 µM
How it was run: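 Fluorescence intensity from a beta-lactamase FRET substrate served as the read-out. Cells: HEK293 with stably integrated ER-alpha-UAS-bla reporter. Agonist 17beta-estradiol was co-added with compounds; incubation 18 hr at 37C, substrate 2 hr at room temperature.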

[6] = qHTS assay to identify small molecule antagonists of the androgen receptor (AR) signaling pathway - cell viability counter screen (AID 743033; also: potency is read from the fitted curve at half-maximal effect; nearly all actives have a fitted effect of over 45% in size); conditions: AR-bla HEK293 viability, CellTiter-Glo luminescence, 16 h; activity change, negative = cytotoxicity: at 58.5 µM (top of the series)
[7] = target: Androgen receptor (Homo sapiens) (UniProt P10275); test: qHTS assay to identify small molecule antagonists of the androgen receptor (AR) signaling pathway (AID 743035; active = well fitted inhibition curve with a large enough effect in the signal ratio in the repeat runs, not every such curve was filed as active; inconclusive = weak or mixed curves, or effect the other way; inactive = no such curve, though single readings can be large or run the other way; the % refers to the signal ratio; also: potency is read from the fitted curve at half-maximal effect); conditions: HEK293 AR-UAS-bla, R1881-stimulated, beta-lactamase FRET, 16 h; series mostly up to 58.5 µM
How it was run: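 In this cell-based reporter screen, compounds were tested in concentration series against R1881-activated HEK293 cells expressing beta-lactamase under UAS control; after 16 h at 37C, FRET substrate was added and fluorescence read 2 h later.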

[8] = target: Androgen receptor (Homo sapiens) (UniProt P10275); test: qHTS assay to identify small molecule agonists of the androgen receptor (AR) signaling pathway (AID 743036; active = well fitted activation curve with a large enough effect in the signal ratio in the repeat runs, with a control signal flat, not every such curve was filed as active; inconclusive = weak or mixed curves, or effect the other way; inactive = no such curve, though single readings can be large or run the other way; the % refers to the signal ratio); conditions: HEK293 AR-UAS-bla GripTite, beta-lactamase FRET ratio, 16 h; activation: at 62.4 µM (top of the series) unless noted
How it was run: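 Agonist activity was scored by beta-lactamase reporter fluorescence in stably transfected HEK293 cells exposed to compounds for 16 h at 37C and 5% CO2. Substrate loading took 2 h at room temperature.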

[9] = target: Androgen receptor (Homo sapiens) (UniProt P10275); test: qHTS assay to identify small molecule antagonists of the androgen receptor (AR) signaling pathway using the MDA cell line (AID 743042; also: potency is read from the fitted curve at half-maximal effect; nearly all actives have a fitted effect of over 55% in size)
How it was run: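 Antagonist mode: compounds plus R1881 agonist added to MDA-kb2 AR-luc cells, incubated 16 h at 37C. Luciferase reporter luminescence quantified, with multiplexed CellTiter-Fluor readout for cell viability.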

[10] = qHTS assay to identify small molecule antagonists of the thyroid receptor (TR) signaling pathway (AID 743065); also: potency is read from the fitted curve at half-maximal effect; nearly all actives have a fitted effect of over 55% in size
How it was run: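 Antagonism measured as loss of luciferase signal in GH3 cells stably carrying a TRE-luciferase reporter, co-treated with compound and T3 (1 nM final) for 23.5 h at 37 C. Viability was read in the same well by CellTiter-Fluor.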

[11] = system: thyroid hormone receptor (rat, GH3 cells); test: qHTS assay to identify small molecule agonists of the thyroid receptor (TR) signaling pathway (AID 743066; calls by dose curve); conditions: GH3.TRE-Luc cells, TR agonist luciferase, 24 h; activation: at 83.9 µM (top of the series) unless noted
[12] = qHTS assay to identify small molecule antagonists of the estrogen receptor alpha (ER-alpha) signaling pathway using the BG1 cell line - cell viability counter screen (AID 743081);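 also: compound given together with 17beta-estradiol as the ER stimulus; potency is read from the fitted curve at half-maximal effect; nearly all actives have a fitted effect of over 45% in size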
[13] = qHTS assay to identify aromatase inhibitors - cell viability counter screen (AID 743084); conditions: MCF-7 aro ERE viability, CellTiter-Fluor, 24 h; activity change, negative = cytotoxicity: at 70.3 µM (top of the series);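 also: cells stimulated with testosterone during compound exposure; potency is read from the fitted curve at half-maximal effect; nearly all actives have a fitted effect of over 55% in size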
[14] = qHTS assay to identify small molecule antagonists of the estrogen receptor alpha (ER-alpha) signaling pathway - cell viability counter screen (AID 743074; calls by dose curve; also: nearly all actives have a fitted effect of over 45% in size)
[15] = target: Estrogen receptor (Homo sapiens) (UniProt P03372); test: qHTS assay to identify small molecule agonists of the estrogen receptor alpha (ER-alpha) signaling pathway using the BG1 cell line (AID 743079); conditions: BG1Luc4E2 cells, ERE-luciferase agonist, 22 h; activation: at 70.3 µM (top of the series) unless noted; also: nearly all actives have a fitted effect of over 20% in size; also: potency is read from the fitted curve at half-maximal effect
Tags tell the direction and shape of the fitted curve or compound fluorescence and quenching.

Sequence of UniProt P03372 (P03372 whole entry, looked up): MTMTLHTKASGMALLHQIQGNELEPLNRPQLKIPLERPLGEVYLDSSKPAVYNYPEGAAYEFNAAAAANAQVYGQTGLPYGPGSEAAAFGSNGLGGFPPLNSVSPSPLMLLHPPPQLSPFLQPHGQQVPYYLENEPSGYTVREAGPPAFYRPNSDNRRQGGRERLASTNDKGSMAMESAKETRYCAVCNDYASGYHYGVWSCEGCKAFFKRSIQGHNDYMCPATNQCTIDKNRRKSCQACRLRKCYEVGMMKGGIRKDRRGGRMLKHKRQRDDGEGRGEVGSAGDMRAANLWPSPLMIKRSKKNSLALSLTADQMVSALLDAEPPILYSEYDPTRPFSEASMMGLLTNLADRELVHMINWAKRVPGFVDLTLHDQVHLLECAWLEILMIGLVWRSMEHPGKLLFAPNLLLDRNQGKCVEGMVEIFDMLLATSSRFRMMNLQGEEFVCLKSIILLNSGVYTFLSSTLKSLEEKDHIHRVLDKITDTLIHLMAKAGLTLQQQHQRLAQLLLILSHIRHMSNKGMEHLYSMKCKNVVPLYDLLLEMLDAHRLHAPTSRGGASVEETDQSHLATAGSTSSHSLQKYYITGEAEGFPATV
Sequence of UniProt P10275 (P10275 whole entry, looked up): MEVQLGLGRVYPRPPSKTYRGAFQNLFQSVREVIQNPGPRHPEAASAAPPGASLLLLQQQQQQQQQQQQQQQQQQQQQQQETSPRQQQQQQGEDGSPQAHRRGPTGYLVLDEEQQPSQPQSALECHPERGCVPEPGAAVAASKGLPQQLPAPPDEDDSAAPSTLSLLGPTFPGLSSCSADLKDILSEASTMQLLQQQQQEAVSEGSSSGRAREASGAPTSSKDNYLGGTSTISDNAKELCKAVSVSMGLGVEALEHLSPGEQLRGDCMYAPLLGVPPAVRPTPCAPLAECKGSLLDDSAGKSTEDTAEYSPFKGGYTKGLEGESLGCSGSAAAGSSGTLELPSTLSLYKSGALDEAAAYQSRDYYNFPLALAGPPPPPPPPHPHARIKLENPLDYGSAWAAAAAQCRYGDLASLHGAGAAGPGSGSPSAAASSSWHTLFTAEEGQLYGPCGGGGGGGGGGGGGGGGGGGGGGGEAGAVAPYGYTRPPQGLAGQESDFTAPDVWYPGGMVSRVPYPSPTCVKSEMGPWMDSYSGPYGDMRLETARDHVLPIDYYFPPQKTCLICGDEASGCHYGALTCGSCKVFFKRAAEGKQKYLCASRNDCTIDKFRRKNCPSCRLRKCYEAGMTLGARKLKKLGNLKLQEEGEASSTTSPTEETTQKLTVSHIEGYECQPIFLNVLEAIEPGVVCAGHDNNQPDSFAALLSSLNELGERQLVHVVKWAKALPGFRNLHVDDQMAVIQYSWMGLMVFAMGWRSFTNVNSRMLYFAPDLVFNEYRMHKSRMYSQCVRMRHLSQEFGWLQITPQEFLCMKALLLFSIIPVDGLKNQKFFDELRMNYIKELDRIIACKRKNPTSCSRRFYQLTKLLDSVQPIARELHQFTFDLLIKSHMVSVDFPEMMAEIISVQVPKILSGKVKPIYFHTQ
Sequence of UniProt P11511 (P11511 whole entry, looked up): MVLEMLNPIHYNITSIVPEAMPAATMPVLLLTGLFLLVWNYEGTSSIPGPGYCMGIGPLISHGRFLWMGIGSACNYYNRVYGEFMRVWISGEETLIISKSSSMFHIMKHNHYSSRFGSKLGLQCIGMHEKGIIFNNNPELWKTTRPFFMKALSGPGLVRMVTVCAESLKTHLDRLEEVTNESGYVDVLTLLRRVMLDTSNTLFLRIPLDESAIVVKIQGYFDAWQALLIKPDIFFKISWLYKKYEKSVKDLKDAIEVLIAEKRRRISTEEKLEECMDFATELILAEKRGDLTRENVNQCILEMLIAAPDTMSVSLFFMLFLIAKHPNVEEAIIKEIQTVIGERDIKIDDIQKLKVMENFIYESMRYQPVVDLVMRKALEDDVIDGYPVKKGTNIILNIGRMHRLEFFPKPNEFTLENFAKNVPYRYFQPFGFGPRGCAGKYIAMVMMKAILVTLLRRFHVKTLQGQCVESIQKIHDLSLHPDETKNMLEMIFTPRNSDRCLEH

SMILES: CCOC(=O)CCC(=O)OCC
- Potency [1]: inconclusive [cytotoxic, single point]
- Potency [2]: inconclusive [cytotoxic, single point]
- Potency [3]: inconclusive [rising, partial curve]
- Potency [4]: inactive
- Potency (Aromatase (Homo sapiens)): inactive

SMILES: CCCCCSCCCCC
- Potency [1]: inconclusive [cytotoxic, single point]
- Potency [2]: inconclusive [cytotoxic, single point]
- Potency [5]: inactive

SMILES: O=S1(=O)CCCO1
- Potency [1]: inactive
- Potency [6]: inconclusive [rising, partial curve, poor fit]

SMILES: O=C1c2c(O)ccc(Nc3ccc(CCO)cc3)c2C(=O)c2c([N+](=O)[O-])ccc(O)c21
- Potency [1]: active: 61.1 µM
- Potency [6]: inconclusive [cytotoxic, partial curve, poor fit]
- Potency [7]: inconclusive
- Potency [8]: inactive
- Potency [9]: inconclusive [inhibitor, partial curve]
- Potency [3]: active: 61.1 µM
- Potency [10]: inconclusive [inhibitor, single point]
- Potency [11]: inactive
- Potency [5]: inconclusive [fluorescent, partial curve, poor fit]
- Potency [12]: inconclusive [cytotoxic, single point]
- Potency (Aromatase (Homo sapiens)): inconclusive [inhibitor, partial curve]
- Potency [13]: active: 54.5 µM

SMILES: CC(=O)[C@H]1[C@H](C#N)C[C@H]2[C@@H]3CC=C4C[C@@H](O)CC[C@]4(C)[C@H]3CC[C@@]21C
- Potency [1]: active: 37.1 µM
- Potency [2]: inconclusive [cytotoxic, single point]
- Potency [10]: inconclusive [inhibitor, partial curve, poor fit]
- Potency [5]: inconclusive [activator, full curve, poor fit]
- Potency [14]: inactive
- Potency [15]: inconclusive [activator]

SMILES: Cc1ccc(OC(=O)CC(C)C)cc1
- Potency [1]: inactive
- Potency [2]: inconclusive [cytotoxic, single point]
- Potency [5]: inactive
- Potency [14]: inactive
- Potency [15]: inactive
